Reference: the supplement of paper PMC12217912
Some of the results follow. Sequences were assembled here from the parent chain. Inactive controls read about 0.05.

B1: TEV protease; numbered along this chain (parent)
chain: MGESLFKGPRDYNPISSSICHLTNESDGHTTSLYGIGFGPFIITNKHLFRRNNGTLVVQSLHGVFKVKDTTTLQQHLVDGRDMIIIRMPKDFPPFPQKLKFREPQREERICLVTTNFQTKSMSSMVSDTSCTFPSGDGIFWKHWIQTKDGQCGSPLVSTRDGFIVGIHSASNFTNTNNYFTSVPKNFMELLTNQEAQQWVSGWRLNADSVLWGGHKVFMVKPEEPFQPVKEATQL

Variants of: B1
Assay: raw area under fraction-flipped curve 0-4 h after induction (AUC4h, not background-subtracted), DNA-recorder readout of cleavage of the substrate (dimensionless); higher = more cleavage of the substrate by the protease variant
Conditions: temperature: 34 °C; time window: 0-4 h after rhamnose induction
Description: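 In vivo DNA recorder in E. coli TOP10(DE3) ΔrhaA at 34 °C. Each TEVp single-site mutant (parent TEVp 0) is paired with a single-site variant of the 7-mer TEVs (canonical ENLYFQ|S). The substrate sits between flexible linkers in a Bxb1-sfGFP-TEVs-SsrA fusion, so cleavage stabilises Bxb1 and speeds flipping of a recombination array, read by NGS. The value is the raw area under the fraction-flipped curve over 0-4 h after rhamnose induction (AUC4h), with ≥20 reads per time point. It is not background-subtracted; inactive controls average about 0.047.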
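Also: Bxb1 expression induced with 0.2% (w/v) L-rhamnose at OD600 near 0.5, cultures sampled hourly, flipped fraction per protease–substrate barcode pair counted by paired-end Illumina sequencing.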

Variant | area with substrate EALYFQS | area with substrate ECLYFQS | area with substrate EDLYFQS | area with substrate EHLYFQS | area with substrate EILYFQS | area with substrate ELLYFQS | area with substrate EMLYFQS | area with substrate EPLYFQS | area with substrate ESLYFQS | area with substrate EVLYFQS | area with substrate EWLYFQS | area with substrate EYLYFQS | area with substrate EELYFQS | area with substrate EGLYFQS | area with substrate EKLYFQS | area with substrate EQLYFQS | area with substrate EFLYFQS | area with substrate ERLYFQS | area with substrate ETLYFQS
Q75S | 0.0803 | 0.0791 | 0.0976 | 0.0649 | 0.0874 | 0.0755 | 0.0967 | 0.0987 | 0.0797 | 0.0681 | 0.0661 | 0.0759 | – | – | – | – | – | – | –
Q75G | 0.115 | 0.0966 | – | – | – | – | 0.103 | – | 0.0918 | – | – | – | 0.0977 | 0.074 | 0.0854 | 0.142 | – | – | –
G8H | 0.0937 | 0.0727 | – | – | – | 0.0776 | – | – | – | 0.0649 | – | – | – | – | 0.112 | – | – | – | –
T70C | 0.0673 | 0.0697 | – | – | 0.0731 | – | 0.0771 | – | 0.0893 | 0.0917 | – | – | – | – | – | 0.0997 | 0.0606 | 0.0864 | –
F49T | 0.0613 | 0.0573 | 0.0618 | – | 0.0572 | 0.0544 | – | – | 0.0554 | – | 0.0537 | 0.0609 | 0.057 | 0.0374 | 0.0487 | 0.0498 | – | – | –
R51Q | 0.131 | – | – | – | 0.0988 | – | 0.112 | 0.166 | 0.113 | – | 0.116 | – | 0.128 | 0.104 | 0.129 | 0.148 | – | 0.164 | –
D82C | 0.095 | – | 0.0606 | – | – | 0.0738 | 0.0516 | 0.0365 | 0.0552 | 0.0547 | – | – | – | 0.0575 | – | 0.0439 | – | – | –
D82S | 0.0313 | 0.0467 | – | – | – | – | – | – | 0.0568 | 0.0565 | 0.0349 | 0.0495 | 0.0591 | – | – | 0.0284 | – | – | –
V67E | 0.0807 | 0.0971 | – | – | 0.0892 | – | – | – | – | – | – | – | – | – | – | – | – | – | –
L61Y | 0.115 | – | – | 0.0861 | 0.0799 | 0.0741 | 0.106 | 0.176 | 0.0954 | 0.0988 | – | 0.0961 | 0.138 | 0.0897 | 0.0801 | 0.125 | – | 0.117 | –
I84K | 0.0427 | 0.0563 | – | – | 0.0566 | – | 0.058 | 0.0512 | 0.0603 | 0.0627 | 0.0524 | 0.0516 | 0.0538 | 0.0555 | – | 0.0534 | – | 0.0234 | –
D69V | 0.114 | 0.0757 | 0.0704 | 0.0656 | 0.0793 | – | 0.0782 | – | 0.0826 | 0.0702 | 0.0713 | 0.0767 | – | – | – | 0.0773 | – | 0.0707 | –
C20I | 0.105 | 0.0935 | 0.107 | 0.137 | 0.0938 | 0.0859 | 0.112 | 0.126 | 0.109 | 0.102 | – | – | 0.104 | – | 0.116 | 0.126 | 0.104 | 0.109 | –
Q59S | 0.115 | – | – | – | 0.116 | – | 0.139 | 0.115 | 0.101 | 0.0883 | – | 0.1 | – | 0.0962 | 0.106 | – | – | – | –
Q59W | 0.123 | 0.119 | 0.126 | – | 0.105 | 0.0914 | 0.132 | 0.118 | 0.105 | 0.1 | – | – | 0.108 | – | 0.109 | – | 0.122 | – | –
Q59C | 0.133 | 0.117 | 0.161 | 0.0857 | 0.13 | – | 0.111 | – | 0.0941 | 0.134 | 0.0952 | – | – | 0.0996 | – | 0.122 | – | – | –
T72M | 0.0993 | – | – | 0.0927 | 0.0907 | 0.044 | 0.0969 | 0.126 | 0.0933 | – | – | – | – | 0.083 | – | 0.135 | – | 0.1 | –

Variant | area with substrate EALYFQS | area with substrate ECLYFQS | area with substrate EDLYFQS | area with substrate EHLYFQS | area with substrate EILYFQS | area with substrate ELLYFQS | area with substrate EMLYFQS | area with substrate EPLYFQS | area with substrate ESLYFQS | area with substrate EVLYFQS | area with substrate EWLYFQS | area with substrate EYLYFQS | area with substrate EELYFQS | area with substrate EGLYFQS | area with substrate EKLYFQS | area with substrate EQLYFQS | area with substrate EFLYFQS | area with substrate ERLYFQS | area with substrate ETLYFQS
T31M | 0.105 | 0.0422 | – | – | – | 0.0875 | – | 0.105 | 0.09 | – | 0.099 | 0.105 | – | 0.0643 | 0.105 | – | 0.103 | 0.0839 | 0.0758
T31Y | 0.138 | – | – | 0.116 | – | 0.0905 | – | – | 0.1 | 0.0931 | – | – | – | – | – | 0.124 | 0.0599 | 0.117 | 0.0835
S60N | 0.113 | 0.09 | 0.106 | 0.099 | 0.0858 | 0.118 | 0.0956 | 0.129 | 0.119 | – | 0.0898 | – | 0.102 | 0.0893 | 0.11 | – | – | 0.0922 | –
S60I | 0.0748 | 0.083 | – | – | 0.0666 | – | – | – | – | 0.0813 | – | – | – | 0.0693 | – | 0.115 | – | – | –
R81Q | 0.126 | 0.097 | – | 0.0941 | – | – | – | 0.0946 | – | – | – | – | – | – | 0.0665 | – | – | – | –
V58I | 0.146 | – | – | – | – | – | – | – | – | – | 0.0931 | – | – | 0.093 | 0.108 | – | 0.0984 | – | –
V58Y | 0.105 | 0.0663 | 0.0565 | – | 0.0571 | – | 0.0685 | – | 0.0696 | 0.0605 | – | 0.0721 | – | 0.0669 | – | 0.0759 | – | – | 0.11
V58W | 0.0338 | 0.0543 | – | – | 0.0647 | – | – | – | 0.0496 | 0.0841 | – | – | – | – | 0.0561 | 0.0645 | – | – | –
V58C | 0.107 | 0.0531 | 0.132 | 0.0931 | 0.0787 | 0.0592 | – | – | 0.124 | 0.0934 | – | 0.0554 | – | – | 0.114 | – | – | – | –
H62P | 0.102 | 0.0918 | – | – | – | 0.0681 | 0.115 | – | – | 0.0789 | 0.0821 | 0.0793 | – | – | 0.074 | – | – | – | 0.11
H62Q | 0.0934 | 0.0817 | 0.129 | – | 0.0834 | – | – | – | – | 0.0823 | 0.0979 | 0.115 | – | 0.1 | 0.0738 | – | – | – | –
H62G | 0.113 | 0.143 | 0.108 | – | 0.0994 | 0.0869 | 0.0992 | – | – | 0.0994 | – | – | 0.149 | – | 0.0844 | 0.11 | – | – | 0.1
H62T | 0.113 | 0.1 | 0.0921 | 0.102 | – | 0.0886 | – | – | 0.103 | – | 0.0935 | – | 0.112 | – | 0.106 | 0.089 | 0.103 | 0.0908 | 0.0966
L73A | 0.0648 | 0.0649 | – | 0.0784 | – | – | 0.0633 | – | 0.0519 | 0.0694 | 0.0522 | – | 0.0768 | – | – | – | 0.0553 | – | –
G2V | 0.175 | 0.106 | 0.169 | 0.133 | – | 0.109 | 0.158 | 0.163 | 0.155 | 0.145 | – | 0.108 | 0.187 | 0.135 | 0.141 | 0.168 | 0.147 | – | –
L5S | 0.11 | 0.151 | – | – | 0.113 | – | 0.137 | 0.122 | 0.113 | 0.108 | – | – | 0.135 | 0.1 | – | – | – | 0.113 | –
L5G | 0.0956 | – | 0.14 | 0.0958 | 0.11 | 0.0933 | 0.127 | – | 0.0901 | 0.101 | – | – | 0.105 | 0.0857 | 0.133 | 0.134 | 0.11 | – | –
